Experimental data taken from PubChem BioAssay AID938 (National Center for Advancing Translational Sciences (NCATS), 2007).
The whole screen tested about 73,000 compounds, of which about 1,800 (2.5%) were called active. Inconclusive means that the source gave no clear call. Such entries were picked first, then a sample of the others. Calls follow the shape of the dose curve; as a rule, active = well fitted activation curve with a large enough effect; inconclusive = small, poorly fitted or top-dose-only effect; inactive = no such curve, though single readings can be large or run the other way. Potencies of inconclusive entries are left out as doubtful fits.

Assay: qHTS Assay for Agonists of the Thyroid Stimulating Hormone Receptor: Activators of Intracellular cAMP Concentrations in Parental HEK 293; also: nearly all actives have a fitted effect of over 55% in size; as to activation: % of control where 0% means no effect
Details: parental HEK293 CNG cAMP sensor, membrane potential fluorescence; activation: at 57.1 µM (top of the series) unless noted
Method in brief: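 Parental HEK 293 cells stably expressing a cAMP-gated CNG channel were loaded with membrane potential dye containing 100 uM RO 20-1724 for 60 min. Compound added for 30 min; depolarization read as fluorescence intensity at 590 nm.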
Potency is read from the fitted curve at half-maximal effect; tags tell the direction and shape of the fitted curve.

SMILES	activation	Potency
O=C(Nc1ncc(Cc2ccccc2)s1)c1cccs1	inactive: -13.2%	
Cc1cc(NC(=O)c2ccc3nc(-c4ccccc4)c(-c4ccccc4)nc3c2)no1	inactive: 20.6%	
COc1cccc(NC(=O)CN2CCN(S(=O)(=O)c3ccc(C(C)C)cc3)CC2)c1		inconclusive [activator, single point]
Cc1ccc2oc(C(=O)NCc3ccc4c(c3)OCO4)c(C)c2c1		inconclusive [activator, partial curve]
CCOC(=O)N1CCN(c2ccc(S(=O)(=O)N(Cc3ccccc3)Cc3ccccc3)cn2)CC1		inconclusive [activator, partial curve]
O=C(CSc1nc(-c2ccccc2)cs1)N1CCN(C(=O)c2ccco2)CC1		inconclusive [activator, partial curve]
Cc1nc(NCc2ccc3c(c2)OCO3)c2oc3ccccc3c2n1		inconclusive [activator, partial curve]
Nc1c(C(=O)NCC2CCCO2)c2nc3ccccc3nc2n1-c1ccccc1 (centres undefined)	inactive: 25.7%	
COc1cccc(Cn2c(=O)c(-c3cc(F)cc(F)c3)nc3cnc(N(C)C)nc32)c1		inconclusive [activator, single point]
N#Cc1c(-c2ccco2)cc(-c2ccccn2)nc1N		inconclusive [activator, single point]
CC(C)Cc1nc2oc3c(N4CCN(CCO)CC4)ncnc3c2c2c1CCCC2		active: 15.8 µM
CCc1nc2c(cnn2-c2ccc(Cl)cc2)c(=O)n1-c1ccc2c(c1)OCCO2		inconclusive [activator, single point]
Cc1ccsc1C(=O)OCC(=O)N1CCOCC1	inactive: -1.82%	
CCSc1nnc(NC(=O)c2cc(C)oc2C)s1	inactive: 1.07%	
Cc1cc(C(=O)CSc2nnnn2C)c(C)n1-c1ccc2c(c1)OCCO2		inconclusive [activator, single point]
CCCn1c(-c2ccc(F)cc2)nc2c(NC(C)CN(C)C)nc(C)nc21 (centres undefined)		inconclusive [activator, single point]
O=C(O)NCc1ccccc1 (tested in a mixture with another compound)		inconclusive [activator, single point]
CCOC(=O)c1nnn(-c2nonc2N)c1-c1ccc(OCC)cc1		inconclusive [activator, single point]
Cn1c(SCc2nc3ccccc3s2)nnc1-c1cccs1	inactive: 6.13%	
c1ccc2c(c1)CCCN2Cc1nnnn1CC1CCCO1 (centres undefined)		inconclusive [activator, single point]
O=C(NCc1cccc2ccccc12)[C@H]1C[C@@H]1[C@H](NP(=O)(c1ccccc1)c1ccccc1)c1ccccc1		inconclusive [activator, partial curve]
CNc1ncnc2ccc(-c3ccccc3C#N)cc12	inactive: -8.16%	
O=C(N=c1nc2ccccn2s1)c1ccccc1	inactive: -6.05%	

SMILES	activation	Potency
O=S(=O)(c1ccccc1)N1CCN(c2cc(-c3ccccc3)nc3ncnn23)CC1		inconclusive [activator, partial curve]
COc1cc(SC)ccc1C(=O)OC1CCOC1=O (centres undefined)		inconclusive [activator, single point]
FC(F)(F)c1ccccc1-c1ccc2ncnc(NCc3cccs3)c2c1		active: 10 µM
CCOC(=O)C(C)Sc1nc(-c2ccco2)cc(C(F)(F)F)c1C#N (centres undefined)		inconclusive [activator, full curve]
O=C(CCn1cccc1)NC1CCCc2ccccc21 (centres undefined)		inconclusive [activator, single point]
CCn1c(SC/C=C/c2ccccc2)nnc1-c1cnccn1		inconclusive [activator, partial curve]
O=C(CN1CCN(C2CCCCC2)CC1)Nc1ccccc1-c1ccccc1		active: 15.8 µM
COc1cc(OC)cc(C(=O)Nc2cc(NC(=O)c3ccco3)ccc2OC)c1		inconclusive [activator, single point]
Cc1ccc(C)c(N2CCN(C(=O)c3ccc(NS(=O)(=O)c4c(C)noc4C)cc3)CC2)c1		inconclusive [activator, single point]
O=C(CSc1n[nH]c(-c2ccccc2O)n1)N1CCCc2ccccc21		inconclusive [activator, single point]
O=C(O)C[C@@H]1CCCc2ccccc2[C@H]1O		inconclusive [activator, single point]
CCOc1ccc2[nH]c(=O)c(CN(Cc3ccc(F)cc3)C(=O)N3CCCC3)cc2c1		inconclusive [activator, single point]
Cc1sc2nc(CN(C(=O)c3cccs3)C3CCCC3)[nH]c(=O)c2c1C		inconclusive [activator, partial curve]
O=C(NC1CCCCC1)C1c2ccccc2C(=O)N1Cc1ccco1 (centres undefined)		inconclusive [activator, partial curve]
CCCCCCOC(=O)C(C#N)c1nc2ccccc2nc1N1CCOCC1 (centres undefined)		inconclusive [activator, full curve, poor fit]
CCCc1c(O)nc(SCc2ccccc2)[nH]c1=O	inactive: 12.8%	
COC(=O)[C@@]1(Cc2ccc(OC)cc2)[C@H]2c3cc(C(=O)N(C)C)n(Cc4ccccn4)c3C[C@H]2CN1C(=O)c1ccccc1		inconclusive [activator, partial curve]
COc1ccc(-c2nc(C#N)c(N3CCOCC3)o2)cc1OC	inactive: 7.92%	
CCS(=O)(=O)NCCc1cc2ccc(C)cc2[nH]c1=O		inconclusive [activator, single point]
COc1ccc(C2=NOC(CN3C(=O)c4ccccc4S3(=O)=O)C2)cc1 (centres undefined)	inactive: -4.13%	
COc1ccc(CNc2nc(-c3ccc(N(C)C)cc3)nc3ccccc23)c(OC)c1	inactive: -21.1%	
COc1ccccc1CN1CCCC2(CCNCC2)C1	inactive: 9.78%	
C=CCc1ccc(OCC(O)COCC)c(OC)c1 (centres undefined)		inconclusive [activator, partial curve]

SMILES	activation	Potency
COc1ccc(-n2nnc3c(=O)n(Cc4cccc(C)c4)cnc32)cc1		active: 25.1 µM
COc1ccccc1CNc1nc(-c2cccc(NS(C)(=O)=O)c2)nc2ccccc12		inconclusive [activator, partial curve]
CCOC(=O)C1CCN(S(=O)(=O)c2cn(C)c(=O)n(C)c2=O)CC1		active: 15.8 µM
COC(=O)c1ccccc1NC(=O)CSc1nnc(-c2ccoc2C)n1C		inconclusive [activator, partial curve]
CC(C)N1CCN(c2ccncc2S(=O)(=O)N2CCCCC2)CC1		inconclusive [activator, partial curve]
COc1ccc(-c2nc3cnc(N4CCNCC4)nc3n(CCC#N)c2=O)cc1		inconclusive [activator, partial curve]
CCCSC1=C(C#N)C(c2ccc(Cl)cc2Cl)CC(=O)N1 (centres undefined)		inconclusive [activator, single point]
Clc1ccc(CN2C3=NCCCN3c3ccccc32)cc1		inconclusive [activator, partial curve]
CC(C)C(c1nnnn1C1CCCC1)N1CCN(C(=O)c2ccco2)CC1 (centres undefined)		inconclusive [activator, partial curve]
CCc1nc(SCc2ccccn2)c2c(=O)n(C)c(=O)n(C)c2n1	inactive: -3.73%	
COC(=O)c1ccccc1NC(=O)C1CCCN(S(=O)(=O)c2ccc(F)cc2)C1 (centres undefined)		inconclusive [activator, single point]
CCCCCCN(C(=O)CCCCCN1C(=O)NC(c2ccccc2-c2ccccc2)C(C(=O)OCc2ccccc2)=C1C)C(C(=O)NCCCC)c1ccc(OCC(=O)OC)c(C(=O)OC)c1 (centres undefined)		inconclusive [activator, partial curve]
CCCCCCn1c(CN2CCC(C)CC2)nc2c1c(=O)n(C)c(=O)n2C		inconclusive [activator, full curve]
CCOC(=O)c1[nH]c2ccc(OC)cc2c1NC(=O)c1ccc2c(c1)OCO2		inconclusive [activator, single point]
Cc1ccc(-c2noc(C3CCN(S(=O)(=O)c4ccc5c(c4)OCCO5)CC3)n2)o1		inconclusive [activator, single point]
CCN1CCN(C(=O)c2cc3sccc3n2CC(=O)c2ccccc2)CC1		inconclusive [activator, single point]
COc1ccc(S(=O)(=O)Nc2ccc3c(c2)OCO3)cc1C(=O)O		active: 31.6 µM
COc1ccccc1CNc1ncnc2ccc(-c3cccc(C#N)c3)cc12		inconclusive [activator, partial curve]
COc1ccc(-c2noc(COc3ccc4c(c3)OCO4)n2)cc1		inconclusive [activator, single point]
CCOC(=O)C1C(=O)CC(C)(O)C(C(=O)OCC)C1/C=C/c1ccccc1 (centres undefined)		active: 5.01 µM
Cc1nc2ccccc2n1S(=O)(=O)c1ccc(S(=O)(=O)N2CCCCCC2)cc1	inactive: 1.92%	
CCc1nc(NCCc2ccccn2)c2nnn(Cc3ccccc3F)c2n1	inconclusive: 35.6% [activator]	
CCC(C)Cn1c(S(=O)(=O)O)nc2ccccc21 (centres undefined)		inconclusive [activator, single point]
